The record followed here is ChEMBL document CHEMBL1201862, “PubChem BioAssay data set” (2004).

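The compound was tested at five concentrations on cells cultured in 96-well plates, with a 48-hour exposure period. GI50 is the concentration that inhibits growth by half.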 The source made the active and inactive calls. No stated cut-off is given here; in the data, active = GI50 up to about 1.1 µM and inactive = higher. Bounds are passed on as bounds.

The assay has as its system NCI-H322M. Description: DTP human tumour cell line panel, 48 h.
As a reminder, the GI50 is the concentration that inhibits growth by half. For `O=C(O)c1ccccc1-c1ccccc1C(=O)Nc1ccc2c(c1)nc(O)c1ccccc12`, the GI50 was inactive: > 100 µM.
As for `CCOC(=O)C(NC(C)=O)(Nc1ccc(S(N)(=O)=O)cc1)C(F)(F)F` (stereo unspecified), the GI50 is inactive: > 100 µM.
Then `COC(=O)C1(CCC(=O)N(C)c2ccccc2)NNC2C(=O)N(c3ccccc3)C(=O)C21` (stereo unspecified), with inactive: > 10 µM; and `CC(=O)O[C@H]1CC(C)(C)C(=C=C/C(C)=C/C=C/C=C/C=C(C)/C=C2C=C(/C=C/[C@@]34O[C@]3(C)C[C@@H](O)CC4(C)C)C(=O)O/2)[C@](C)(O)C1`, with inactive: 19.6 µM; and `CS(=O)(=O)c1nc(-c2cc3c(c(S(C)(=O)=O)n2)CCCC3)cc2c1CCCC2`, with inactive: > 100 µM.
The result for `O=S(=O)(O)c1cccc2ccc(O)c(/N=N\c3ccc(S(=O)(=O)c4ccc(/N=N/c5c(O)ccc6cccc(S(=O)(=O)O)c56)cc4)cc3)c12` reads inactive: > 100 µM; that for `CCOc1ccc(NC(=O)CC2C(=O)Nc3ccccc3S2(=O)=O)cc1` (stereo unspecified), inactive: > 100 µM; that for `CCN(CCO)CC1CCCC2CCCCC21` (stereo unspecified), inactive: > 100 µM.
Turning to `Nc1c(-c2ccc(Cl)c(Cl)c2)c2ccc([N+](=O)[O-])cc2c(=O)n1-c1nc2ccccc2s1`, the GI50 was active: 0.438 µM.
The result for `CCOC(=O)C(C/C=C/CO)N(C)C(=O)OC(C)(C)C` (stereo unspecified) reads inactive: > 100 µM.
In the case of `Oc1ccc2ccccc2c1OCc1nnc(CCCCCCCCc2nnc(COc3c(O)ccc4ccccc34)o2)o1`, the GI50 was inactive: > 100 µM.
The result for `CCOC(=N)CC(=O)Nc1ccccc1` reads inactive: 36.9 µM; that for `NC(=O)CCC(Nc1c2ccccc2nc2ccccc12)C(=O)O` (stereo unspecified), inactive: > 100 µM.
Take `COc1ccc(P2(=S)Oc3ccc(C(c4ccccc4)(c4ccccc4)c4ccccc4)cc3O2)cc1` (stereo unspecified): the GI50 is inactive: 14.9 µM.
Consider `CCOC(=O)c1c(N2CCCC2)[nH]c(=O)c(C(c2c(O)c(C(=O)OCC)c(N3CCCC3)[nH]c2=O)C(C)C)c1O`, for which the GI50 was inactive: > 100 µM.
Then `Cc1cc2c(=O)cc(-c3ccncc3)oc2c(C(N)=O)c1C`, with inactive: > 100 µM; and `CC(=O)NC(C)(C)C1CCC(C)=C(c2ccccc2)C1` (stereo unspecified), with inactive: > 100 µM.
Then `CN(C)CCNc1ncnc2[nH]c(-c3ccc4ccccc4c3)nc12`, with inactive: > 100 µM; and `COc1cccc(/C(Cl)=C(\C=O)c2cccc(OC)c2)c1`, with inactive: 12.1 µM.
Turning to `Cc1cc2c(cc1C)[n+]([O-])c(C(=O)C/C(=N/NC(=O)c1ccccc1O)C(=O)Nc1ccccc1C(C)C)c(C)[n+]2[O-]`, the GI50 is inactive: > 100 µM.
As to `C=C(C)[C@H]1CC(=O)[C@@]2(C)C[C@H]3O[C@]3(C)CC/C=C(\C)CC[C@H]12`, the GI50 is inactive: 73.6 µM.
The result for `COC(=O)CNC(=O)C(Cc1ccccc1)NC(=O)c1ccc(-c2ccc(Cl)cc2Cl)o1` (stereo unspecified) reads inactive: 23.1 µM.
As for `CC1=CC(O)C(C(O)(C(F)(F)F)C(F)(F)F)C(C)(C)C1` (stereo unspecified), the GI50 was inactive: > 10 µM.
The result for `Cc1nc2ccc(Br)cc2c(=O)n1-c1ccc(NC2OCC(O)C(O)C2O)cc1` (stereo unspecified) reads inactive: > 100 µM; that for `Cn1c(-c2c(C3=CC(=O)N(c4ccccc4)C3=O)c3ccccc3n2C)cc2ccccc21`, inactive: 60.8 µM; that for `O=C1C(=O)N(C(=O)c2ccc(Cl)c(Cl)c2)c2ccc(Cl)cc21`, inactive: > 100 µM.
Then `COC(=O)c1ccccc1/C=C1\Cc2cc(C)c(C)cc2C1=O`, with inactive: > 100 µM; and `COc1ccc(NC(=O)CC(=O)N2N=C(N3CCCCC3)CC2c2ccccc2)cc1` (stereo unspecified), with inactive: > 100 µM.
The result for `CC1=C2C(c3ccccc3)(c3ccccc3)C3C=CC2(C=N3)N(C(=O)NC2CCCCC2)C1=O` (stereo unspecified) reads inactive: 18.8 µM; that for `NC(=S)N/N=C(\CC1OC(=O)c2ccccc21)c1ccc(Cl)cc1` (stereo unspecified), inactive: 41.4 µM.
Turning to `O=C(CCCCCCCCC(=O)N1C(=O)CC(=O)N(c2cccc(Cl)c2)C1=S)N1C(=O)CC(=O)N(c2cccc(Cl)c2)C1=S`, the GI50 was inactive: 26.9 µM.
Regarding `CC#CC1C(OC(=O)c2ccccc2)CCCC1(CI)N=[N+]=[N-]` (stereo unspecified), the GI50 is inactive: > 100 µM.
As to `COc1ccc2cc3n(c2c1)CCc1cc(OC)c(OC)cc1-3`, the GI50 is inactive: > 100 µM.
The result for `COc1ccc(CCn2nccc2C)cc1` reads inactive: > 100 µM; that for `SC1=NNC2(C(Cl)=N1)c1ccccc1-c1ccccc12`, inactive: > 10 µM.
Take `CC(=O)/C(=N\O)C(=O)NCc1ccccc1`: the GI50 is inactive: > 100 µM.
Then `O=C1c2ccccc2C(=O)N1CCN(CCN1C(=O)c2ccccc2C1=O)Cn1cccn1`, with inactive: > 100 µM.
With `CC(C)(C)c1cc(C2=NN(c3ccccc3)C(c3ccccc3)C2)cc(C(C)(C)C)c1O` (stereo unspecified), the GI50 was inactive: > 100 µM.
For the molecule `NC(=S)c1cccc(C2Nc3ccccc3O2)c1` (stereo unspecified), the GI50 was inactive: > 100 µM.
Turning to `CC1(C)CN=C(Nc2cccc(C(F)(F)F)c2)S1`, the GI50 was inactive: > 100 µM.
For `Cc1ccc2nc(-c3ccccc3)cc(=O)n2c1`, the GI50 is inactive: > 100 µM.
Then `CCCCNC1=C(C(=O)OCC)/C(=N/NC(=O)c2ccccc2O)CO1`, with inactive: 19.5 µM.
`CC(=O)NC1=C(NCCCl)C(=O)c2ccccc2C1=O`: the GI50 is inactive: 56.6 µM.
In the case of `CCN(CC)C(=O)CC12CCCCC1=Nc1ccccc12` (stereo unspecified), the GI50 is inactive: > 100 µM.
For `O=C(O)CN1CCNCCN(CC(=O)O)CCN(CC(=O)O)CCNCC1`, the GI50 is inactive: 97.5 µM.
Then `O=C(Nc1ccc(Cl)cc1Cl)C1C(=O)OC2(CCCCC2)OC1=O`, with inactive: 10.7 µM; and `O=C1CS[C@@](CC(c2ccc(Cl)cc2)c2ccc(Cl)cc2)(c2ccc(Cl)cc2)N1`, with inactive: 45.1 µM.
Then `O=C(O)C12C3CCCC1C2CC3` (stereo unspecified), with inactive: > 100 µM; and `CC(=O)N1CC(=O)N2C(=O)/C(=C/c3ccc(Cl)cc3)N=C12`, with inactive: > 100 µM.
Then `O=C(c1ccccc1)C(c1ccccc1)C1(O)C(=O)Nc2ccccc21` (stereo unspecified), with inactive: > 100 µM; and `CC(=O)C1=C(C)N(c2ccc(C)cc2)C2(O)C=CC(=O)C3C(=O)N(c4ccccc4)C(=O)C132` (stereo unspecified), with inactive: 18.5 µM; and `Nc1c(S(=O)(=O)O)cc(S(=O)(=O)O)c2ccc(/N=N/c3ccc(/C=C/c4ccc(/N=N/c5ccc6c(S(=O)(=O)O)cc(S(=O)(=O)O)c(N)c6c5O)cc4S(=O)(=O)O)c(S(=O)(=O)O)c3)c(O)c12`, with inactive: > 100 µM.
Take `CCCCCCCCCC(=O)NC(Cc1ccc(O)cc1)C(=O)NCCCNCCCCNCCCNC(=O)[C@@H](N)CCCN=C(N)N` (stereo partly specified): the GI50 was inactive: 84.3 µM.
For `C=C(C)C(=O)OC1CCC2(C)C(CCC3C2CCC2(C)C(c4ccc(=O)oc4)CC4OC432)C1` (stereo unspecified), the GI50 is inactive: 7.35 µM.
The result for `C[n+]1c(-c2ccc(NC(=O)c3ccc(C(=O)Nc4ccc(-c5cn6ccccc6[n+]5C)cc4)cc3)cc2)cn2ccccc21` reads inactive: > 100 µM.
Take `NCCCCN(CCCN)C(=O)OCc1ccccc1`: the GI50 was inactive: > 100 µM.
